Experimental data taken from patent publication US20180289637A1, “SUBSTITUTED CYCLOHEXANONES” (CLEXIO BIOSCIENCES LTD., priority 2016, published 2018).

Key:
C57Bl/6 strain mice [1] = experiment: Tail Suspension Test (mice), Example 13; conditions: 6 min TST; for reduction of immobility time from the saline control group: 30 min before test; for decrease of immobility time compared to vehicle WFI: 120 mg/kg p.o., 45 min before test
C57Bl/6 strain mice [2] = experiment: Tail Suspension Test (mice), Example 10; conditions: 15 mg/kg ip, 30 min before test, 6 min TST

Structure (SMILES)	reduction of immobility time from the saline control group (C57Bl/6 strain mice [1]; 30 mg/kg ip)	reduction of immobility time compared to the saline control group (C57Bl/6 strain mice [2])	reduction of immobility time from the saline control group (C57Bl/6 strain mice [1]; 15 mg/kg ip)	decrease of immobility time compared to vehicle WFI (C57Bl/6 strain mice [1])
CNC1(c2ccccc2Cl)CCCCC1=O (racemic) [Ketamine, ketamine]	−41.5%	–	–	–
CN[C@]1(c2ccccc2Cl)CCCCC1=O [Esketamine, S-ketamine, reference compound]	−34.7%	−41.3%	−26.2%	−91.0%
[2H]C1([2H])CCC[C@](NC)(c2ccccc2Cl)C1=O [Example 1, (2S)-2-(2-chlorophenyl)-6,6-dideuterio-2-[deuterio(methyl)amino]cyclohexanone, deuterium chloride]	−53.0%	–	−29.0%	−87.6%
